Measured values as given in the supplement of paper PMC4967469.
pIC50: −log10 of the molar value. A lower IC50 marks a more sensitive line; a fit beyond the top or the lowest dose is shown as a bound at that dose. The AUC spans the tested range (256-fold, ending at the top dose) of the same fit; the more sensitive the line, the further below 1. For some of these results: Any top dose called inferred was calculated from the reported fits.

What was measured:
Experiment in all cases: Viability of human cancer cell lines after 72 h of drug (GDSC screen)
[1] = compound: CCc1cc(-c2n[nH]c(C)c2-c2ccc3c(c2)OCCO3)c(O)cc1O [CCT018159]; conditions: top dose 10 µM; top dose inferred
Protocol: (§1)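 Human cancer cell lines in 384-well plates, medium with 10% serum, drug for 72 h over a 256-fold dose range (nine 2-fold or five 4-fold steps up to the top dose). Adherent lines were fixed and stained with the nucleic acid dye Syto60, suspension lines read with resazurin; signal relative to control wells, capped at 0 and 100%. One two-parameter sigmoid per drug and line, fitted in a mixed model over all curves with the slope shared within a line.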

[2] = compound: CS(=O)(=O)c1ccc(C(=O)Nc2ccc(Cl)c(-c3ccccn3)c2)c(Cl)c1 [Vismodegib]; conditions: top dose 10 µM; top dose inferred
Protocol: as §1

[3] = compound: COc1cccc2cc(-c3nc([C@H]4CC[C@H](C(=O)O)CC4)n4ncnc(N)c34)[nH]c12 [OSI-027]; conditions: top dose 20 µM
Protocol: as §1

[4] = compound: COC(=O)CNC(=O)C(=O)OC [Dimethyloxalylglycine]; conditions: top dose 4000 µM; top dose inferred
Protocol: as §1

[5] = compound: Cc1cnc(Nc2ccc(OCCN3CCCC3)cc2)nc1Nc1cccc(S(=O)(=O)NC(C)(C)C)c1 [TG101348]; conditions: top dose 10.24 µM
Protocol: as §1

[6] = compound: C=CCNC1=C2C[C@@H](C)C[C@H](OC)[C@H](O)[C@@H](C)/C=C(\C)[C@H](OC(N)=O)[C@@H](OC)/C=C\C=C(/C)C(=O)NC(=CC1=O)C2=O [17-AAG]; conditions: top dose 1 µM
Protocol: as §1

[7] = compound: Cc1cnc(Nc2ccc(F)cc2Cl)nc1-c1c[nH]c(C(=O)N[C@H](CO)c2cccc(Cl)c2)c1 [VX-11e]; conditions: top dose 5.12 µM; top dose inferred
Protocol: as §1

[8] = compound: CN(C)Cc1cccc(N=C(c2ccccc2)c2c(O)[nH]c3cc(C(=O)N(C)C)ccc23)c1 [BIX02189]; conditions: top dose 20 µM; top dose inferred
Protocol: as §1

[9] = compound: O=C(c1ccc(C(=O)N2CCC(N3CCCC3)CC2)c(Nc2ccccc2)c1)N1CCC(N2CCCC2)CC1 [UNC1215]; conditions: top dose 1 µM; top dose inferred
Protocol: as §1

[10] = compound: COc1cccc2c1C(=O)c1c(O)c3c(c(O)c1C2=O)C[C@@](O)(C(=O)CO)C[C@@H]3O[C@H]1C[C@H](N)[C@H](O)[C@H](C)O1 [Doxorubicin]; conditions: top dose 1.024 µM
Protocol: as §1

Row | Cell Line | AUC [1] | pIC50 [1] | AUC [2] | pIC50 [2] | AUC [3] | pIC50 [3] | AUC [4] | pIC50 [4] | AUC [5] | pIC50 [5] | AUC [6] | pIC50 [6] | AUC [7] | pIC50 [7] | AUC [8] | pIC50 [8] | AUC [9] | pIC50 [9] | AUC [10] | pIC50 [10]
1 | JHH-7 (liver, adherent) | 0.921 | < 5.00 | 0.98 | < 5.00 | 0.615 | 5.60 | 0.316 | 4.10 | 0.877 | 5.04 | 0.672 | 6.74 | 0.974 | < 5.29 | 0.987 | < 4.70 | 0.986 | < 6.00 | 0.405 | 7.44
2 | JM1 (B-cell lymphoma, suspension) | 0.963 | < 5.00 | 0.984 | < 5.00 | 0.324 | 6.36 | 0.299 | 4.13 | 0.691 | 5.70 | 0.977 | < 6.00 | 0.987 | < 5.29 | 0.905 | < 4.70 | 0.979 | < 6.00 | 0.428 | 7.38
3 | JSC-1 (B-cell lymphoma, suspension) | 0.921 | < 5.00 | 0.986 | < 5.00 | 0.138 | 7.03 | 0.356 | 4.00 | 0.474 | 6.26 | 0.794 | 6.34 | 0.613 | 6.19 | 0.878 | 4.70 | 0.985 | < 6.00 | 0.396 | 7.48
4 | JVM-2 (lymphoid neoplasm, suspension) | 0.909 | < 5.00 | 0.951 | < 5.00 | 0.906 | < 4.70 | 0.85 | < 2.40 | 0.761 | 5.35 | 0.877 | < 6.00 | 0.941 | < 5.29 | 0.891 | < 4.70 | 0.968 | < 6.00 | 0.695 | 6.59
5 | JVM-3 (lymphoid neoplasm, suspension) | 0.823 | 5.22 | 0.899 | < 5.00 | 0.855 | 4.79 | 0.943 | < 2.40 | 0.909 | < 4.99 | 0.776 | 6.39 | 0.797 | 5.61 | 0.946 | < 4.70 | 0.966 | < 6.00 | 0.966 | < 5.99
6 | JiyoyeP-2003 (Burkitt lymphoma, suspension) | 0.924 | < 5.00 | 0.976 | < 5.00 | 0.701 | 5.37 | 0.53 | 3.52 | 0.909 | < 4.99 | 0.97 | < 6.00 | 0.979 | < 5.29 | 0.958 | < 4.70 | 0.987 | < 6.00 | 0.64 | 6.83
7 | KARPAS-45 (lymphoblastic leukaemia, suspension) | 0.87 | 5.17 | 0.972 | < 5.00 | 0.465 | 5.99 | 0.668 | 3.17 | 0.577 | 6.00 | 0.918 | < 6.00 | 0.953 | < 5.29 | 0.705 | 5.38 | 0.986 | < 6.00 | 0.907 | –
8 | KARPAS-299 (anaplastic large cell lymphoma, suspension) | 0.916 | < 5.00 | 0.971 | < 5.00 | 0.347 | 6.29 | 0.354 | 3.97 | 0.868 | 5.17 | 0.848 | 6.25 | 0.992 | < 5.29 | 0.955 | < 4.70 | 0.978 | < 6.00 | 0.696 | 6.69
9 | KARPAS-422 (B-cell lymphoma, suspension) | 0.985 | < 5.00 | 0.985 | < 5.00 | 0.234 | 6.67 | 0.421 | 3.82 | 0.666 | 5.74 | 0.895 | < 6.00 | 0.987 | < 5.29 | 0.91 | < 4.70 | 0.98 | < 6.00 | 0.678 | 6.70
10 | KARPAS-620 (haematopoietic neoplasm, suspension) | 0.947 | < 5.00 | 0.991 | < 5.00 | 0.191 | 6.74 | 0.492 | 3.62 | 0.486 | 6.23 | 0.96 | < 6.00 | 0.966 | < 5.29 | 0.832 | 4.99 | 0.988 | < 6.00 | 0.772 | 6.47
11 | KE-37 (lymphoblastic leukaemia, suspension) | 0.872 | 5.23 | 0.989 | < 5.00 | 0.148 | 6.81 | 0.193 | 4.38 | 0.488 | 6.22 | 0.961 | < 6.00 | 0.932 | < 5.29 | 0.755 | 5.27 | 0.987 | < 6.00 | 0.317 | 7.64
12 | KLE (endometrium, adherent) | 0.96 | < 5.00 | 0.953 | < 5.00 | 0.603 | 5.55 | 0.702 | 2.89 | 0.851 | < 4.99 | 0.93 | < 6.00 | 0.958 | < 5.29 | 0.88 | < 4.70 | 0.975 | < 6.00 | 0.653 | 6.67
13 | KM-H2 (Hodgkin lymphoma, suspension) | 0.976 | < 5.00 | 0.984 | < 5.00 | 0.601 | 5.65 | 0.833 | 2.69 | 0.835 | 5.27 | 0.937 | < 6.00 | 0.969 | < 5.29 | 0.946 | < 4.70 | 0.988 | < 6.00 | 0.598 | 6.95
